Test results: patent US20240369568A1 (GlaxoSmithKline, published 2024)

Molecular target: T1, BCMA (the 'Antigen' of the SPR antigen binding assay) (human, UniProt Q02223 1-54, limits assumed)
T1 construct: also called human BCMA
T1 sequence (looked up): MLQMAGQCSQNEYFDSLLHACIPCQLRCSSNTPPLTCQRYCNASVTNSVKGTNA
Assay: SPR, release and stability method, specific binding activity
Procedure: Antigen, FcγRIIIa, and FcRn specific binding activity of the purified DL variants was measured using SPR. Antigen, FcγRIIIa and FcRN analyses were performed using a release and stability surface plasmon resonance (SPR) method. The specific binding activities measured were between 80-110% for the purified DL variants. […] Despite the trend observed, the decrease in binding activity as a function of drug load is minimal and remains within specification acceptance criteria. It has been observed that as the DAR increases, there is no significant change in antigen FcγRIIIa binding by SPR and antibody-dependent cell-mediated cytotoxicity (ADCC) activity.

B1: purified DL6 drug-load variant of belantamab mafodotin (antibody, human IgG1, kappa)
heavy: QVQLVQSGAEVKKPGSSVKVSCKASGGTFSNYWMHWVRQAPGQGLEWMGATYRGHSDTYYNQKFKGRVTITADKSTSTAYMELSSLRSEDTAVYYCARGAIYDGYDVLDNWGQGTLVTVSS[… human IgG1 constant region …]
light: DIQMTQSPSSLSASVGDRVTITCSASQDISNYLNWYQQKPGKAPKLLIYYTSNLHSGVPSRFSGSGSGTDFTLTISSLQPEDFATYYCQQYRKLPWTFGQGTKLEIKRTVAAPSVFIFPPSDEQLKSGTASVVCLLNNFYPREAKVQWKVDNALQSGNSQESVTEQDSKDSTYSLSSTLTLSKADYEKHKVYACEVTHQGLSSPVTKSFNRGEC
modifications: mcMMAF on LC C214 of one of the two light chains (sequential numbering); mcMMAF on HC C230 and HC C233 of both heavy chains and on HC C224 of one heavy chain (sequential numbering)
notes: Antibody drug conjugate, drug load of six; also called DL6a
B1 was tested, and the “Antigen Binding (%) (specific binding activity)” value was 89%.
